Experimental data as given in PubChem BioAssay (Tox21).
“And” between values parts separate entries of the source, which are not always exact repeats. Identical values can stand only once. This list was built around the results that the source calls inconclusive (neither active nor inactive); the mix of calls is not that of the screen. Potencies of inconclusive entries are doubtful fits and often do not repeat. The source made the active and inactive calls. Calls come from the whole dose curve; as a rule, active = well fitted inhibition curve with a large enough effect in the repeat runs; inconclusive = weak or mixed curves; inactive = no such curve, though single readings can be large or run the other way.

Biological target: Estrogen receptor (Homo sapiens) (UniProt P03372)
UniProt P03372, sequence (P03372 whole entry, looked up): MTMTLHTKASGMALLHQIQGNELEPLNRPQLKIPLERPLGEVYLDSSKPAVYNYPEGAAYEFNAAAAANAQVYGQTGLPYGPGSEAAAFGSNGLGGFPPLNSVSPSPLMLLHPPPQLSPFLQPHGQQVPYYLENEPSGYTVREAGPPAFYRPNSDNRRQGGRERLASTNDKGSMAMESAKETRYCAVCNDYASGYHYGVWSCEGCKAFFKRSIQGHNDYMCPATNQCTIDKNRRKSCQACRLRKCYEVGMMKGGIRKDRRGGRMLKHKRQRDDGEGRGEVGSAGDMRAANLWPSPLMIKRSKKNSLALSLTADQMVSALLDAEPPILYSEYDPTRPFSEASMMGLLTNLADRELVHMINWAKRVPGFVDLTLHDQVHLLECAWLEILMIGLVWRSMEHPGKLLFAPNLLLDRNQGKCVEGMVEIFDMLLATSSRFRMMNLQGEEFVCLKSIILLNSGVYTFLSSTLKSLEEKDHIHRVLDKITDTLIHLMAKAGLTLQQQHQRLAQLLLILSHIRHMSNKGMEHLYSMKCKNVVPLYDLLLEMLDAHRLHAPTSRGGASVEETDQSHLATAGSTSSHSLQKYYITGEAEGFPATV
Experiment: qHTS assay to identify small molecule antagonists of the estrogen receptor alpha (ER-alpha) signaling pathway using the BG1 cell line in the presence of 0.1 nM 17-beta-estradiol (AID 1259244); note: nearly all actives have a fitted effect of over 50% in size
Details: VM7Luc4E2 (BG1) ERE-luciferase, antagonist mode, 0.1 nM E2, 22 h; series mostly up to 92.4 µM
Text: National Center for Advancing Translational Sciences [NCATS]
NIH Chemical Genomics Center [NCGC]
U.S. Environmental Protection Agency [EPA]
National Institutes of Environmental Health Sciences [NIEHS]
National Toxicology Program [NTP]
U.S. Food and Drug Administration [FDA]
Estrogen receptor (ER), a member of the nuclear hormone receptor plays an important role in development, metabolic homeostasis and reproduction. Two subtypes of ER, ER-alpha and ER-beta, have similar expression patterns with some uniqueness in both types. Endocrine disrupting chemicals (EDCs) and their interactions with steroid hormone receptors like ER causes disruption of normal endocrine function. Therefore, it is important to understand the effect of environmental chemicals in ER signaling pathway. For identifying ER antagonists, VM7Luc4E2 cell line was used to screen against Tox21 compound libraries.
VM7Luc4E2 cell line (provided by Denison MS, University of California) endogenously express full-length ER-alpha and is stably transfected with a plasmid containing four estrogen responsive elements (ERE) upstream of a luciferase reporter gene. The current screening for identification of ER-alpha inhibitors against Tox21 compound libraries used lower concentration (0.1 nM) of 17beta-Estradiol as a stimulator.
Tox21 Assay Protocol Summary:
VM7Luc4E2 cells were cultured in phenol red free assay medium containing 10% charcoal stripped FBS for 5 days prior to the assay. The cells were dispensed at 4,000 cells/well in 4 uL of assay medium into white wall/solid-bottom 1536-well plates (Corning Life Sciences, Corning, NY) using a Multidrop Combi (ThermoFisher Scientific, Waltham, MA) dispenser. After the assay plates were incubated at 37C and 5% CO2 for 24 hr, 23 nL of compounds dissolved in DMSO, positive controls or DMSO only was transferred to the assay plates by a Pintool station (Kalypsys, San Diego, CA). The transfer of compounds was followed by the addition of 1 uL of 0.1 nM (final concentration) agonist (17beta-Estradiol)/assay medium using a Flying Reagent Dispenser (FRD, Aurora Discovery, San Diego, CA). The plates were incubated at 37C and 5% CO2 for 22 hr. For luciferase reporter gene assay, 4 uL of ONE-Glo reagent (Promega Corporation, Madison, WI) was added to each well using the FRD and after 30 min incubation at room temperature luminescence intensity was measured using ViewLux plate reader (PerkinElmer, Shelton, CT).
% is set by controls: 0 for no effect and ±100 for the full control effect; potency is the fitted concentration of half-maximal effect; tags give direction and shape of the fitted curve.

| Structure (SMILES) | Potency | activity change, negative = inhibition |
| --- | --- | --- |
| CCOC(=O)NNc1ccc(N(CC)CC(C)O)nn1 (stereo not given) | inactive |  |
| Nc1ccc(O)c(N)c1 | inconclusive: 61.1 µM [inhibitor, partial curve, poor fit] |  |
| O=[Se](O)O | inconclusive: 68.7 µM [inhibitor, single point] | inactive: -20.4% [at 19 µM] |
| CCCCCCCCCCCC(=O)OC | inactive |  |
| CC(=O)[C@]1(O)Cc2c(O)c3c(c(O)c2[C@@H](O[C@H]2C[C@H](N)[C@H](O)[C@H](C)O2)C1)C(=O)c1ccccc1C3=O | inactive |  |
| COc1c(N2C[C@@H]3CCCN[C@@H]3C2)c(F)cc2c(=O)c(C(=O)O)cn(C3CC3)c12 | inactive |  |
| c1ccc(C(O[C@@H]2CCCN(CCc3ccc4c(c3)OCO4)C2)c2ccccc2)cc1 | inconclusive: 68.6 µM [inhibitor, single point] |  |
| COc1cc(N)c(Cl)cc1C(=O)NC1CCN(CCCOc2ccc(F)cc2)CC1OC (stereo not given) | inconclusive: 11.9 µM [inhibitor, partial curve] |  |
| COc1ccccc1N1CCN(CCCCNC(=O)c2ccc(-c3ccc(C(C)=O)cc3)cc2)CC1 | inconclusive: 13.3 µM [inhibitor, single point] |  |
| Oc1cc2c(cc1O)[C@H]1c3ccc(O)c(O)c3OC[C@@]1(O)C2 | inconclusive: 55.1 µM [inhibitor, partial curve] |  |
| COC(=O)/C=C/c1ccccc1 | inconclusive: 77 µM [inhibitor, single point] |  |
| Cc1cccc(C)c1OCC(=O)N[C@@H](Cc1ccccc1)[C@@H](O)C[C@H](Cc1ccccc1)NC(=O)[C@H](C(C)C)N1CCCNC1=O | inconclusive: 33.5 µM [inhibitor, partial curve, poor fit] |  |
| O=C1c2ccccc2C(=O)C1(O)O | inconclusive: 68.9 µM [inhibitor, single point] |  |
| CS(=O)(=O)OCCCCOS(C)(=O)=O | inactive |  |
| CC(=O)C1=C(C)[C@@H]2C[C@@]3(C1)[C@H](C)CC[C@H]3C2(C)C | inactive |  |
| CN1CCc2cccc3c2[C@H]1Cc1ccc(O)c(O)c1-3 | inconclusive: 16.2 µM [inhibitor, partial curve] |  |
| CCN(Cc1cccc(S(=O)(=O)O)c1)c1ccc(C(=C2C=CC(=[N+](CC)Cc3cccc(S(=O)(=O)O)c3)C=C2)c2ccccc2S(=O)(=O)[O-])cc1 | active: 12.2 µM |  |
| Clc1ccnc(Cl)n1 | inconclusive: 69.6 µM [inhibitor, single point] |  |
| CN1C(=O)N(c2ccccc2Br)Cc2cnc(Nc3ccc4c(c3)OCC(CO)O4)nc21 (stereo not given) | active: 48.6 µM |  |
| NC1[C@H]2CN(c3nc4c(cc3F)c(=O)c(C(=O)O)cn4-c3ccc(F)cc3F)C[C@@H]12 (stereo not given in full) | inconclusive: 3.35 µM [inhibitor, full curve] |  |

| Structure (SMILES) | Potency | activity change, negative = inhibition |
| --- | --- | --- |
| Nc1ccc(O)c([N+](=O)[O-])c1 | inconclusive: 68.6 µM [inhibitor, single point] |  |
| CCc1nc(N)nc(N)c1-c1ccc(Cl)cc1 | inconclusive: 26.6 µM [inhibitor, partial curve] |  |
| COc1ccc(OC(F)(F)F)cc1CN[C@H]1CCCN[C@H]1c1ccccc1 | inconclusive: 68.6 µM [inhibitor, single point] |  |
| NCCc1ccc(O)c(O)c1 | active: 2.44 µM and inconclusive: 26.6 µM [inhibitor, partial curve, poor fit] |  |
| CN1CCN(C2=Nc3cc(Cl)ccc3Nc3ccccc32)CC1 | inconclusive: 33.5 µM [inhibitor, single point] |  |
| Nc1ncnc2nc[nH]c12 | inactive |  |
| Nc1ccc(Oc2ccc(Cl)cc2)cc1 | inconclusive: 67.1 µM [inhibitor] |  |
| NC(=O)c1nc(-c2cccc(-c3cc(F)ccc3OCC(F)(F)C(F)(F)F)c2)n[nH]1 | active: 54.5 µM |  |
| CC(=O)Nc1cc(S(=O)(=O)O)cc2cc(S(=O)(=O)O)c(N=Nc3ccccc3)c(O)c12 | inconclusive: 38.6 µM [inhibitor, partial curve] |  |
| CCO[Si](CC(C)C)(OCC)OCC | inactive |  |
| CC(C)COC(=O)c1ccc(N)cc1 | inactive |  |
| CCCCCCOc1ccccc1C(N)=O | inconclusive: 33.5 µM [inhibitor, single point] |  |
| O=C(Nc1cccc(Cl)c1)OCC#CCCl | inconclusive: 68.6 µM [inhibitor, single point] |  |
| CC1CCCCN1CCCOC(=O)c1ccc(OC2CCCCC2)cc1 (stereo not given) | inconclusive: 33.5 µM [inhibitor, single point] |  |
| O=[N+]([O-])c1cc(N(CCO)CCO)ccc1NCCO | inconclusive: 27.3 µM [inhibitor, full curve] |  |
| CC1(C)CC(OC(=O)CCCCCCCCC(=O)OC2CC(C)(C)NC(C)(C)C2)CC(C)(C)N1 |  | inactive: -2.8% [at 19 µM] |
| O=C(NOCC1CC1)c1ccc(F)c(F)c1Nc1ccc(I)cc1Cl | inconclusive: 33.5 µM [inhibitor, single point] |  |
| CC(C)CC(C)O (stereo not given) | inactive |  |
| CNC(=S)NN | active: 48.6 µM |  |
